23 compounds from publication PMC12040169 (PLOS Biology, 2025) can be followed below.

Some of the results follow.

For this experiment, the system named is T1, C. trachomatis L2/434/Bu expressing GFP (CTL2-GFP).
T1 construct: L2/434/Bu GFP intracellular growth in HeLa cells
Further details: species or system HeLa; C. trachomatis total inclusion area by high-content imaging, normalised to DMSO. The note with it: total inclusion area; 28.5 h, 10 µM; inhibitor. The method, boiled down:
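High-content images of fixed, Hoechst-stained infected cultures supply inclusion area and count (growth) plus nuclei number (viability), complementing bulk GFP/resorufin fluorescence. MIC determination is unchanged from the primary assay.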
As for `O=C(NC(N1CCCCC1)C(Cl)(Cl)Cl)c1ccc(Cl)cc1Cl` (centres unmarked) [CBK261024], the “% of control remaining” value was 89.8344. Next, `CCC(=O)N1CCc2cc(C(O)CN3CCCCC3)ccc21` (centres unmarked) [CBK283111]: 117.177; `CC(C)(C)OC(=O)N1CCC(OCc2cn(-c3ccc(-n4cncn4)cc3)nn2)CC1` [CBK149477]: 33.8892; `Cc1nc2ccc(C(=O)NCCCN3Cc4ccccc4C3)cc2[nH]1` [CBK283301]: 100.367. In the case of `CNC(=O)c1ccc(-c2ccccc2C)nc1NCCOC` [CBK106007], the “% of control remaining” value is reported as 111.688.

Turning to `Cc1cc(NC(=O)c2cccc(C(F)(F)F)c2)c2ccccc2n1` [CBK116263], the “% of control remaining” value is 94.5537. Next, `Cn1ccc(CN2CCOC(c3nccs3)C2)cc1=O` (centres unmarked) [CBK304921]: 46.9595; `O=C(CCN1C(=O)c2ccccc2C1=O)NC(=S)Nc1ccccc1` [CBK267595]: 88.31; `O=[N+]([O-])c1ccc(CN2CCC(Oc3cncc(OCc4cccnc4)n3)C2)cc1` (centres unmarked) [CBK084456]: 91.9218.

In the case of `CCOC1(c2ccccc2)N=C2C(Cl)=CC(C(F)(F)F)=CN2N=C1c1ccccc1` (centres unmarked) [CBK020634], the “% of control remaining” value was found to be 103.629. Next, `C[S+]([O-])c1ccc(-c2cnc(NCC3CCN(C(=O)OC(C)(C)C)CC3)cn2)cc1` (centres unmarked) [CBK173723]: 59.0609; `Cc1ccc(C(=O)N2CCC3(CC2)CNC(=O)c2ccccc2O3)o1` [CBK285328]: 86.7365. As to `O=C(NCCOc1ccccc1)N1CCN(Cc2ccccc2)CC1` [CBK155652], the “% of control remaining” value came out at 88.8865.

For the compound `Clc1ccc(COc2cncc(OC3CCN(CC4CC4)C3)n2)cc1Cl` (centres unmarked) [CBK084443], the “% of control remaining” value stood at 78.0526. Then `COc1ccc(Cl)cc1NC(=O)CCSc1ccccc1` [CBK263969], with 103.148.

Regarding `O=C(c1cccnc1)C1CCN(C(=O)Cc2ccc(Cl)cc2)CC1` [CBK283813], the “% of control remaining” value turned out to be 96.5781. Next, `O=C(O)c1ccc(C(=O)O)c2c(C(=O)O)cccc12` [CBK261356]: 109.371; `O/N=C/c1ccc(-c2cc(Cl)ccc2Cl)o1` [CBK288500]: 112.034; `CCC#CC(=O)Nc1cncc(OC2CCNCC2)n1` [CBK026731T]: 82.8666.

As to `COCCN(Cc1cc2ccc(C)cc2nc1O)C(=O)c1cccs1` [CBK269324], the “% of control remaining” value is recorded as 90.3354.

With `CCN1CCN(Cc2ccccc2[N+](=O)[O-])CC1` [CBK261561], the “% of control remaining” value stood at 95.6975. Then `N#CCCn1cc(C(=O)N2CCCCC2)c(-c2cccs2)n1` [CBK306194], with 41.4972.

On to `O=C(NC1CCCC1)C1CCCN1c1nc(O)cc(C(F)(F)F)n1` (centres unmarked) [CBK003927], for which the “% of control remaining” value is listed as 94.6431.
